The list shows a part of the results. These are further read-outs of the screen, such as a control signal, another cell line or another target. No call is given for them. The list favours compounds with an active or inconclusive main result. Words in brackets tell the shape of the fitted curve; partial curves, single points and poor fits give uncertain potencies.
Legend:
[1] = Cell-based coincidence reporter assay to measure PMP22 gene transcription in S16 Pmp22-F2sN cells - Confirmatory screen (AID 1508646); conditions: S16 Schwann cells Pmp22-F2sN, dual luciferase, 24 h
In short: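 S16 Schwann cells carrying a bioluminescent reporter in the Pmp22 3' UTR (Pmp22-F2sN) were treated with compounds for 24 h at 37C, then lysed; FLuc and then NLuc luminescence were read sequentially with a dual-luciferase kit on a CCD imager.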

[2] = qHTS Assay for Lipid Storage Modulators (AID 1519); conditions: Drosophila S3 cells, BODIPY lipid droplet/cell ratio, laser cytometry; measured here: lipid (BODIPY) channel AC50; cells loaded with oleic acid
In short: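 Cells seeded at 5,000 per well were treated with compounds over a concentration series and loaded with oleic acid (400 uM, as added). Lipid droplet fluorescence (488 nm excitation, 500-530 nm channel) was read by laser-scanning cytometry and normalized to 20 uM Triacsin C.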

[3] = measured here: FLuc reporter channel
[4] = measured here: NLuc reporter channel
Tags tell the direction and shape of the fitted curve.

Structure (SMILES) | AC50 [1, 3] | AC50 [1, 4] | AC50 [2]
CCCN(C(=O)c1cc2c(=O)n(CC)c3ccccc3c2s1)c1ccccc1F | 27.3 µM [falling, partial curve, poor fit] | 43.2 µM [falling, single point] | 
Cc1ccc(S(=O)(=O)Cc2ccc(C(=O)N3CCN(c4cccc(C)c4C)CC3)o2)cc1 | 19.3 µM [falling, partial curve, poor fit] | 19.3 µM [falling, partial curve, poor fit] | 
CCN1C(=O)c2ccccc2S(=O)c2ccc(C(=O)N3CCN(c4cccc(Cl)c4)CC3)cc21 (stereo unspecified) | 24.3 µM [falling, partial curve, poor fit] | 24.3 µM [falling, partial curve] | 
Cc1cc(N2CCN(c3cccc(C(F)(F)F)c3)CC2)n2nc(-c3ccccc3C)nc2n1 | 43.2 µM [falling, single point] | 34.3 µM [falling, partial curve, poor fit] | 
COc1ccc(Oc2ncc3nc(-c4ccc(Cl)cc4)c(=O)n(C[C@H]4CCCO4)c3n2)cc1 |  |  | 15.8 µM [falling, partial curve]
CC[C@H](C(=O)[C@H](C)[C@H](O)[C@H](C)CCc1ccc(C)c(O)c1C(=O)O)[C@H]1O[C@](CC)([C@@H]2CC[C@@](O)(CC)[C@H](C)O2)C[C@H]1C |  |  | 14.1 µM [falling, partial curve, poor fit]
COc1ccc(Cl)cc1NC(=O)CCCS(=O)(=O)c1nc(-c2ccc(OC)c(OC)c2)cc(C(F)(F)F)n1 | 7.69 µM [falling, partial curve] | 10.9 µM [falling, full curve] | 
CCC1=Nc2cc(C(=O)NCCCOC(C)C)ccc2Sc2ccc(C)cc21 | 13.7 µM [falling, partial curve, poor fit] | 9.68 µM [falling, partial curve] | 
Cc1c(Cl)cccc1NC(=O)c1oc2ccc(S(=O)(=O)N3CCC4(CC3)OCCO4)cc2c1C | 7.69 µM [falling, full curve, poor fit] | 7.69 µM [falling, full curve, poor fit] | 
CC(=O)Nc1cccc(NC(=O)C(=O)NCCc2sc(-c3ccccc3)nc2C)c1 | 3.43 µM [falling, full curve] | 3.85 µM [falling, full curve] | 
CC(CNC(=O)CCCn1c(=O)c2cccn2c2ccc(F)cc21)c1ccccc1 (stereo unspecified) | 21.7 µM [falling, partial curve, poor fit] | 24.3 µM [falling, partial curve, poor fit] | 
CCOc1nc2cccc(C(=O)OC(C)OC(=O)OC3CCCCC3)c2n1Cc1ccc(-c2ccccc2-c2nn[nH]n2)cc1 (stereo unspecified) |  |  | 4.47 µM [falling, partial curve]

Source: PubChem BioAssay (NCATS)
